# The supplement of paper PMC3334620
# The full ranking holds about 33,000 sequences; the median of “E-score (-0.5 to 0.5)” is about -0.016, and the highest 2% start at about 0.31. The list shows a part of the results.
# Biological target: Cst6 (UniProt P40535)
# Experiment: PBM E-score (8-mer binding enrichment) (E-score (-0.5 to 0.5)); higher = stronger / more preferred TF binding; most listed sequences are background and not binding sites
# Settings: protein concentration: 200 nM; construct: GST-DNA-binding domain
# Summary of the method: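 Bound GST-tagged yeast transcription factors, applied at about 100-200 nM to double-stranded universal all-10-mer Agilent arrays, were detected with fluorescent anti-GST. Scans were normalised with masliner. A modified Wilcoxon-Mann-Whitney statistic, the E-score, was assigned to each ungapped eight-base word pooled with its reverse complement by the Universal PBM Analysis Suite.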
row,Sequence,PBM E-score
1,AAATAGAT,0.272
2,TGCCAACA,-0.0662
3,AAACCGTG,0.11
4,ACTTTTGG,0.0364
5,TATCCATA,0.077
6,CCTGCAGC,-0.1
7,CCGTTACA,0.0733
8,GCCGCATA,0.276
9,TTATAGAA,0.162
10,CGCCACAG,-0.0862
11,AGGCCCAA,-0.0687
12,CCGAAATA,0.262
13,CCTGTTTC,-0.0927
14,ATTGAAAG,0.0394
15,AGCAGTCA,-0.188
16,TGTAGGAA,-0.0644
17,ATGTCCTA,-0.0924
18,ACATCCCT,-0.0808
19,AAATACCG,0.02
20,CACGTCCC,-0.216
21,AGGTTGAA,0.0673
22,AAGAGCTG,-0.123
23,CTCAATTC,0.072
24,CTCACGAG,-0.148
25,AGAGGTTC,-0.11

row,Sequence,PBM E-score
1,ATCATGCA,0.109
2,GGTGTTAA,-0.0066
3,GCCGGTCA,-0.0239
4,GCGAAACA,-0.0193
5,ACCATTGC,0.0812
6,CGAGTTAC,0.174
7,CCTCTTGA,0.041
8,GGCCTGTA,-0.336
9,GTGGGGAA,0.134
10,AAGGCCAT,-0.04
11,CTGCGCAC,-0.176
12,GTGTGTAA,0.228
13,AGAACCAC,-0.112
14,ACGATCGT,0.0108
15,CAACTTTA,0.255
16,GAAACGGC,0.282
17,CCAAGCAC,-0.0642
18,GCCCGAGA,-0.163
19,GATCACAA,0.143
20,ATATACAA,0.221
21,TATCAAAA,0.14
22,ACTACATC,0.189
23,CTCGTCAC,0.349
24,GCTAAGCA,-0.094
25,CGTTGTAA,0.0823

row,Sequence,PBM E-score
1,ACCCTGGC,-0.116
2,GTAAGATA,0.196
3,ATATGGTA,0.115
4,AACGTAGT,0.133
5,CACATTGA,0.141
6,GGACGAAC,-0.0196
7,CCGAATAC,0.118
8,AAATAATG,0.312
9,ACCGCGTC,0.149
10,TATCGTAA,0.285
11,AAAAGCAG,0.0567
12,GGTGATAC,-0.0477
13,ATTAGCAA,0.209
14,AAAGGTTA,-0.0675
15,ACCGCCGC,0.127
16,CTAACCTC,-0.107
17,GAGGCCCC,-0.334
18,AGGCCCAT,-0.231
19,AAAGGAAC,0.0656
20,GCGCCCAA,-0.0825
21,TCTATAGA,0.0271
22,CCGAGAGC,-0.227
23,GCATGGCA,0.103
24,CACCGCAC,-0.106
25,GCGAAACC,0.0382

row,Sequence,PBM E-score
1,ACGGGTAA,-0.0372
2,CAGCTTGG,-0.0785
3,CATGAACG,0.0345
4,AGTCTCAC,-0.0416
5,GGGGGCGA,-0.328
6,CTGCGTAC,-0.171
7,CCCAAGCC,-0.241
8,AATCGATT,0.0818
9,CAGCCACA,-0.0939
10,CTGGCACC,-0.256
11,CCAGATGA,0.131
12,TAGGTCCA,-0.114
13,TATCTTAA,0.17
14,ATTATCAC,0.271
15,AATACGTA,0.344
16,ATAAGGAC,0.0867
17,CAACGGTA,-0.141
18,ACACGTGC,-0.0137
19,ACGGGAGC,-0.124
20,CACAGCAG,0.00781
21,ACCAAGGC,-0.181
22,CGCAAACG,0.0433
23,CAAACCGG,-0.149
24,CGGCGCTA,0.147
25,GCAGATGA,0.0159

row,Sequence,PBM E-score
1,CCTATGTA,-0.102
2,AGCAGGTA,-0.133
3,GTATAGAC,-0.0367
4,AGGGTAAC,-0.204
5,CGATGAGA,-0.048
6,ATTAAATA,0.267
7,ATACAGGC,-0.121
8,CCTGCAAC,-0.141
9,ATTATCAG,0.125
10,AGATGTAC,-0.136
11,ACCAGGTC,-0.218
12,AGACGAAC,0.0131
13,CTCTACAC,-0.225
14,CATGTGGA,-0.0382
15,ATCACACC,0.0827
16,GGGCTCAC,-0.19
17,ACGAATCT,0.09
18,GCCACAAA,0.0529
19,CAGACCGA,-0.166
20,CTTGATCA,0.126
21,CGATTCAA,0.024
22,GCTCTGAA,-0.0691
23,ATCCGGGA,-0.225
24,ATAGTCAC,0.194
25,AGTGTCCG,-0.0931

row,Sequence,PBM E-score
1,AGGATATC,-0.0519
2,AAGGTCCC,-0.148
3,ACGGTAAC,0.21
4,ACAGGTTC,-0.245
5,CGATACCG,-0.274
6,AAGTAGGA,0.0475
7,CCCATCGA,0.0183
8,GTAAGTGA,0.234
9,CGATATGA,0.156
10,ACTTGCTA,-0.191
11,CATTAAGA,0.0481
12,AGCAGCCC,-0.244
13,ACATAAAG,0.0758
14,GGGCTCTA,-0.184
15,TATGCAGA,-0.064
16,ATGCACAG,-0.0515
17,AAAACAGG,-0.159
18,CAGTCAAC,-0.143
19,CAGTTTTC,0.18
20,AGCCTGAG,-0.117
21,AGACAACC,-0.0433
22,AATGTCAA,0.102
23,GGTCGGAA,-0.135
24,AGGACGTA,-0.126
25,ATGAGTCG,-0.125

row,Sequence,PBM E-score
1,GACAGCTA,-0.0871
2,ATTCTGGG,-0.152
3,CCCGCGGA,-0.0408
4,AAACCAAG,0.0861
5,CATACTCC,0.0426
6,AGTTGCTG,-0.0492
7,AAGATACG,0.147
8,CGCATAAG,0.102
9,GCTGAAAC,-0.0238
10,AATGCTGG,-0.129
11,AGACTCGC,-0.273
12,ACGGGGCA,0.0661
13,AATTACTA,0.143
14,CATATTAC,0.261
15,AATTGCTA,0.00596
16,CTCCTCCC,-0.358
17,ACCCCCGT,-0.275
18,CCTTACGC,0.0971
19,GATCGTTA,-0.128
20,CCAGGCGA,-0.317
21,ATCAGCTG,0.128
22,CTTCCGAA,-0.11
23,TCCTAAAA,0.0266
24,CACCAGAA,-0.0422
25,AGGACACA,0.211

row,Sequence,PBM E-score
1,GATGACGA,0.463
2,CGGCCACC,-0.0849
3,TAACCCCA,-0.302
4,GCATCGAC,0.0107
5,CCAATGAC,0.314
6,CCCTTGCA,-0.275
7,GGAGACGA,-0.0641
8,CATACGCG,0.034
9,GCCATGAA,-0.0843
10,ATGCGGCC,0.0608
11,GTCAGACA,0.0345
12,ATACCAAC,0.118
13,AATTGCTG,0.226
14,ACACGGCT,0.266
15,GATCCGGA,-0.169
16,ATAGCATC,0.107
17,AATTTCGC,-0.0459
18,ATACGGCG,0.36
19,ATATTTAG,0.221
20,TGGGGCAA,-0.247
21,AGGAATAC,-0.145
22,CGGGTATC,-0.098
23,GCGGTCGA,-0.0118
24,ATACACAG,-0.173
25,GGGTTATA,-0.167

row,Sequence,PBM E-score
1,CATAAAGC,-0.103
2,CGCCAGAA,0.00857
3,CATTCCAA,0.0936
4,TTAGGAAA,0.106
5,CTAGAAGA,-0.00683
6,AAGCTCCA,-0.0294
7,ACCGGCCC,-0.28
8,ACAGTGTC,-0.175
9,TGTCAAAA,0.163
10,AATTGTAT,0.0983
11,ATTTTGGA,0.235
12,CACTTCCC,-0.00973
13,AAAAAAGG,0.00277
14,CTGAAATC,0.0366
15,CTCTAGGA,-0.194
16,CTTCACCA,-0.141
17,ACACTCAG,0.0333
18,AGGAAATA,0.233
19,CCGTACGA,0.104
20,CCGGCCGC,-0.237
21,CCCACGTA,-0.0899
22,AGTCATGC,-0.0259
23,CAGGACAA,0.0953
24,GAAAATCA,0.198
25,AGTACTGC,-0.173

row,Sequence,PBM E-score
1,ATGTGCTG,0.111
2,GTCTGTGA,0.0571
3,CCAATCAC,-0.147
4,TCTAACAA,0.0676
5,TCCCGGCA,-0.268
6,CAAGAAAG,0.0874
7,CTTGTATA,-0.019
8,CCACCCCC,-0.361
9,AGGAACCA,-0.199
10,AATTCTAT,0.0911
11,CCTTTGCG,0.17
12,ACTGAATC,-0.0232
13,GAGTCGTA,-0.0876
14,GGCCCGTA,-0.0941
15,GTTGTGTA,0.0549
16,AGCCCTGA,-0.124
17,AGGAATCA,0.0273
18,CAATCACC,-0.00458
19,AAGATGAC,0.345
20,AGATTGAG,0.228
21,GGAAGTGA,0.119
22,CGCGCGCC,0.209
23,CAAAACGC,0.211
24,ACTAAATC,0.246
25,CAGTATAG,0.131

row,Sequence,PBM E-score
1,AAAGATGA,0.292
2,CACACGGC,0.293
3,GCAATTGA,0.234
4,TCATCCAA,0.271
5,AATGAACT,0.106
6,CTGTTAGC,-0.136
7,GCGGGAGA,-0.308
8,CGTGTTTA,0.136
9,CGCGGACA,-0.00614
10,CGCTTTAC,0.0111
11,AACGGGGA,-0.0597
12,GCCAAGGA,-0.0351
13,GCCTGCGA,-0.283
14,AATTAGGA,0.0183
15,AATTTTTA,0.228
16,AACACCCG,0.143
17,ACACCGCA,-0.114
18,CCCGCAAG,-0.33
19,TGAGTGCA,-0.0487
20,AAGAAGGA,-0.0423
21,GAGTCAAC,-0.0954
22,AAGGATAT,0.187
23,ATTAAGGG,-0.0594
24,GACACCGC,-0.259
25,CCGCAGAC,-0.106

row,Sequence,PBM E-score
1,CGTTTTTC,0.123
2,ATAAGTAC,0.0427
3,ACAGAGGC,-0.168
4,CCAAGGCG,0.0308
5,ACCCGTCT,-0.174
6,ACGGAGAG,-0.181
7,TCCTCACA,-0.0493
8,TACTAAAA,0.209
9,GAGAGTGA,0.0981
10,AAATGTCA,0.216
11,CGGAATAC,0.102
12,ACACTCTA,0.152
13,AGGTCTCA,-0.0465
14,ATCGTACA,0.0963
15,CATCCTAG,-0.00483
16,AGGAAGAG,-0.148
17,CTTCGACA,-0.109
18,AGAACGAT,-0.036
19,ACTAGTAG,0.072
20,ATGCGCAC,0.14
21,CACTCTTA,0.0713
22,GACACCTC,-0.105
23,GCCCGGGC,-0.165
24,GCGTGTCA,0.137
25,ACTCCAGA,-0.104

row,Sequence,PBM E-score
1,CTTGAAAC,0.043
2,CCAGCCCA,-0.413
3,CCTGAGGC,-0.177
4,CAAACGAC,0.0614
5,AAAGCGTG,0.0399
6,AGGGCGAA,-0.168
7,GATCGCCA,-0.131
8,TGTCGGAA,-0.148
9,GACCGGAA,-0.0506
10,CATCCATG,0.144
11,GGGAAACA,0.003
12,CCGAACGA,-0.0554
13,AGCCCGCG,-0.191
14,AATGTATG,0.203
15,ATTTTTTA,0.325
16,ATCTGCCG,0.071
17,CGGGGTAA,-0.0205
18,CCATCCAA,-0.0877
19,CATTCGGA,0.0454
20,ACAATTTC,0.163
21,CGTGCTAC,-0.0255
22,ACCTGGTC,-0.188
23,CAAGTAAA,0.0858
24,CGTTGTTC,0.00842
25,CTGGTAGA,-0.0329

row,Sequence,PBM E-score
1,CCACACGC,-0.0522
2,GACCACGC,-0.177
3,TCTCGCCA,-0.0276
4,CGTTGAAC,0.00319
5,GGGTGGTA,-0.108
6,AGCGATAA,0.028
7,ACAGGCCT,-0.236
8,CGTAACAC,0.171
9,CTTAGAGC,0.0236
10,AGCTTCCA,-0.103
11,ACAGAGGT,-0.0808
12,GACCAGTA,-0.231
13,CCAACTTC,-0.0772
14,ACCCCCAG,-0.43
15,GTGAATTA,0.241
16,GCTTCCGA,-0.0873
17,CTCTGTAA,0.0656
18,ATATGGTG,0.0972
19,CACCTACC,-0.123
